The campaign covered roughly 310,000 compounds. About 2,200 (0.71%) showed an effect of 50% or more. Effects have a minus sign here. The list shows a part of the results.
molecular target: human ether-à-go-go-related gene (hERG) potassium channel (human, UniProt Q12809); test: primary screen, population patch clamp on CHO cells stably expressing hERG
Sequence (Q12809 whole entry, looked up): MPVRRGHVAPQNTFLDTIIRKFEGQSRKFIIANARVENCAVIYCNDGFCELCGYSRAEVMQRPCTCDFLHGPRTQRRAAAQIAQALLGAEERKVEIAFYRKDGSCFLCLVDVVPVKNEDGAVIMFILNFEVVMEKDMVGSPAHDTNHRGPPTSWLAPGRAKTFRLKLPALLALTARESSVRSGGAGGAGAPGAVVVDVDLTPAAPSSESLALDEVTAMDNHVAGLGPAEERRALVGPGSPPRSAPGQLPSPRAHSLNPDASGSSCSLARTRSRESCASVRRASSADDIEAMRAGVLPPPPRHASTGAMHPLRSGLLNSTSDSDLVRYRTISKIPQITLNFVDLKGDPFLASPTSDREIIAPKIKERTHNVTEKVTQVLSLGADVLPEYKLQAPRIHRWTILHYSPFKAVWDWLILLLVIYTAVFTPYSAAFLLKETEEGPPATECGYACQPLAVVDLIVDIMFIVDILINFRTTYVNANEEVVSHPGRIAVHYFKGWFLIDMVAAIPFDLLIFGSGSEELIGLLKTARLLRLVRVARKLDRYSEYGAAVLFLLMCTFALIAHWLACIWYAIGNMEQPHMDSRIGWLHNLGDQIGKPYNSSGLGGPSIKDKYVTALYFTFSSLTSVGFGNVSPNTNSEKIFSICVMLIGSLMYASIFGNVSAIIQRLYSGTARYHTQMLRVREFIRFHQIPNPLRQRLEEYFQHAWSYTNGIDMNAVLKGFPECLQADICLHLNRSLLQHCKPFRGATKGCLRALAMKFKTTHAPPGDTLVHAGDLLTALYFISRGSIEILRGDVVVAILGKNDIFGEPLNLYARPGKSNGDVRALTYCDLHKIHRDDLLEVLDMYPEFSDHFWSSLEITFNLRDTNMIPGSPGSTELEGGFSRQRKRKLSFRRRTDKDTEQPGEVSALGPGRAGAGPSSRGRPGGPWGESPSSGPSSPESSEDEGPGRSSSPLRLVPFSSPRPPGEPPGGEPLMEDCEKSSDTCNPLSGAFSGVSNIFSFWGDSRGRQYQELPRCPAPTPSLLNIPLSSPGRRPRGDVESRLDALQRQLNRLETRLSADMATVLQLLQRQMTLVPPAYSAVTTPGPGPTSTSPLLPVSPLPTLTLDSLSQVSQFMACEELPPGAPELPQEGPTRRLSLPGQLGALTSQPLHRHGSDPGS

Compound	hERG current change (%, negative = inhibition) at 1uM [%]
C=CCOC(=O)C1=C(C)OC(N)=C(C#N)C1c1ccc2c(c1)OCO2 (centres unmarked)	13.4
CN=C1C=C/C(=N/N=c2\ccn(O)cc2C)C=C1C	-1.51
O=C(CN1C(=O)c2cccnc2C1=O)c1ccccc1	3.26
COc1ccc(-n2nnnc2SCC(=O)Nc2ccccc2)cc1	15.7
CCCNC(=O)c1ccc(C2SCC(=O)N2CCc2ccccc2)cc1 (centres unmarked)	5.43
Cc1noc(C)c1C(=O)Nc1ccc(-c2nnc3n2CCCCC3)cc1	11.5
COc1cc(/C=N/NC(=O)c2c(C)nc3ccc(Cl)cn23)cc(OC)c1OC	13.6
COc1cc(COc2ccc3c(C)c(Cc4ccccc4)c(=O)oc3c2)cc(OC)c1OC	-16.1
COCCCNCC(O)COc1ccccc1F (centres unmarked)	11.4
O=C(Cc1ccccc1)Nc1ccccc1C(=O)Nc1ccc(C(=O)O)cc1	13.2
Cc1cccc(CNc2ccc(S(=O)(=O)N3CCCCC3)cc2)c1	-0.0701
CCOC(=O)C1(CC)NC(c2ccc(OC)cc2OC)C2C(=O)N(C)C(=O)C21 (centres unmarked)	2.87
CCn1cnc2scc(-c3ccc(C)c(C)c3)c2c1=O	-1.44
CCC(O)CNC(=O)CCc1nnc(C2(c3ccc(Cl)cc3)CCC2)o1 (centres unmarked)	9.59
Cc1nc2c(ccc3nc(NC(=O)C4CC4)sc32)s1	6.36
Clc1ccc(C[n+]2csc3ccccc32)cc1.[Br-]	3.46
O=C(COC(=O)CCc1nc2ccccc2c(=O)[nH]1)Nc1ccccc1Cl	11.3
COc1ccc(OC)c2sc(NC(=O)c3ccc(Cl)s3)nc12	9.34
CC(CNC(=O)CN1C(=O)CCSc2ccccc21)c1ccccc1 (centres unmarked)	14.6

Compound	hERG current change (%, negative = inhibition) at 1uM [%]
CCOC(=O)C1CCN(C(=O)CSc2cc(=O)n(CC)c3ccccc23)CC1	5.03
CCCCc1cc(=O)oc2cc(OCC(=O)N3CCC(C(=O)O)(c4ccccc4)CC3)ccc12	-4.58
CC(=O)N1c2ccccc2NC2=C(C(=O)CCC2)C1c1ccco1 (centres unmarked)	4.1
Nc1nc(-c2ccccc2)nn1C(=O)c1ccco1	14.2
Cc1c2n(c3ccccc13)CCN(C)C2	14.6
C=CCn1c(O)c(C=Nc2ccc(OC)cc2C)c(=O)[nH]c1=O	12.1
CCOC(=O)c1ccc2[nH]c3c(c2c1)CCCC3	7.28
O=S(=O)(c1ccc(OC(F)(F)F)cc1)N1CCCC(c2ccccc2)C1 (centres unmarked)	11.9
O=C(c1ccc(C(=O)N2CCN(c3ccccc3F)CC2)nc1)N1CCN(c2ccccc2F)CC1	9.04
CCN1/C(=C2/SC(=S)N(C)C2=O)C=Cc2cc(C)ccc21	0.0036
Cl.OCCNCc1cccc(Br)c1	2.6
COC(=O)CNC(=O)C(C)(C)Oc1ccc(Cl)cc1	11.2
COC(=O)[C@@H]1C[C@@]2(O)[C@H](O)[C@H](O)[C@H](O)C[C@H]2N1Cc1ccc(-c2ccccc2)cc1	16.9
CCOc1ccc(S(=O)(=O)N(C)c2ccc(OCC(=O)NCc3ccc(C(=O)OC)cc3)cc2)cc1	-1.81
COc1ccccc1CCC(=O)OCC(=O)NC1CC1	5.74
O=S(=O)(c1ccc(Oc2ccc3oc4ccccc4c3c2)nc1)N1CCCC1	-10.9
CC1CCN(C(=O)C2CCCN2S(=O)(=O)c2ccc(Cl)cc2)CC1 (centres unmarked)	10.4
COC(=O)Nc1ncc(CN2C(=O)c3ccccc3C2=O)s1	-4.83
O=C(O)C(F)(F)F.O=C1C(Cc2ccccc2)Nc2ncnc(N3CCc4ccccc4C3)c2N1Cc1ccc(Cl)cc1 (centres unmarked)	21.2

Compound	hERG current change (%, negative = inhibition) at 1uM [%]
CC(C)(O)C#Cc1ccc(CN2CCN(Cc3ccsc3)C(CCO)C2)cc1 (centres unmarked)	1.26
COC(=O)c1cc2occc2n1Cc1nc(-c2ccccc2F)oc1C	7.08
Cc1cc(C(=O)N2CCN(S(C)(=O)=O)CC2)sc1-c1ccccc1	11.2
O=C(COC(=O)c1ccc(Br)cc1)NCc1ccccc1	13.8
CCOC(=O)c1ccc(NC(=O)C23CCC(C)(C(=O)O2)C3(C)C)cc1 (centres unmarked)	4.42
Cc1cc(C(=O)O)ccc1-n1c(C)ccc1C	7.86
CC/C(=N/NC(=O)CNc1ccc(Cl)cc1C)c1ccccc1	12.2
Cc1cccc2cc(C(c3nnnn3Cc3ccccc3)N3CCN(c4ccccc4)CC3)c(=O)[nH]c12 (centres unmarked)	-0.284
COc1ccc(C2(c3ccc(OC)cc3)NC(=O)N(CC(=O)Nc3ccc(N4CCOCC4)cc3)C2=O)cc1	-3.75
O=C(CSc1nc(N2CCCCC2)nc(N2CCCCC2)n1)c1ccccc1	-1.64
CN(CC(=O)N1CCN(Cc2ccccc2)CC1)S(=O)(=O)c1ccc(Br)cc1	-3.88
COc1ccc(-c2csc(N3C(=N)SCC3=O)n2)cc1	-7.71
CCCCNC(=O)CSc1nc2ccccc2c(=O)n1CCNC(C)=O	-0.746
C=CCSc1nnc(-c2cc3c(C(F)(F)F)nn(C)c3s2)n1C	13.6
CN(CCCCCCN(C)Cc1ccccc1O)Cc1ccccc1O.O=C(O)C(=O)O	12.8
O=C(C1CCN(C2CCN(C/C(Cl)=C/c3ccccc3)CC2)CC1)N1CCOCC1	-33.8
CN(C)c1ccc(CNn2cnnc2SCC(=O)NC(C)(C)C)cc1	9.77
O=C(CNC(=O)c1ccc(Cl)c([N+](=O)[O-])c1)NCC1CCCO1 (centres unmarked)	10
